# Experimental data as given in the BET-seq Pho4 binding data (Le et al. 2018).
# The other results are listed elsewhere or left out. Values were computed here from the reads of four pooled replicates and scatter widely.
# Biological target: T1, Pho4 (S. cerevisiae) (UniProt P07270)
# T1 sequence: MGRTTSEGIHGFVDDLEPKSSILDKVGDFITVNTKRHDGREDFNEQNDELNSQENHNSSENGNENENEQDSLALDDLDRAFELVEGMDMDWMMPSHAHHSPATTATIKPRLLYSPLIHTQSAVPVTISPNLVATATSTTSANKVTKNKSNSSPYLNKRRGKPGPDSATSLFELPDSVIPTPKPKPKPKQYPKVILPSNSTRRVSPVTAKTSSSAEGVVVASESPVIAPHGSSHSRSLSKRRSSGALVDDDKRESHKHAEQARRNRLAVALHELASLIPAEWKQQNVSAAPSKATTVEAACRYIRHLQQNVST
# Assay: relative binding free energy (BET-seq); higher = weaker binding
# Conditions: reference: library average
row,Sequence,relative binding free energy [kcal/mol]
1,TTGCACACGTGTTGCG,0.01
2,TGTGACACGTGCGTCT,-0.02
3,AAAATCACGTGGGTAG,-0.05
4,ATGAGCACGTGTGCAG,-0.21
5,TAGGACACGTGAGTTT,0.35
6,TAAGACACGTGTTTTA,-0.04
7,GTGTGCACGTGTGGAA,0.09
8,CGGTGCACGTGTGCGG,-0.12
9,GTCATCACGTGGTTGG,0.19
10,TCTGTCACGTGAGTCG,0.33
11,GACGGCACGTGTTGAT,0.11
12,GGGGGCACGTGAATCT,0.25
13,GTTTCCACGTGATGTG,0.28
14,GTTTTCACGTGGGAGT,0.33
15,TATAACACGTGAGTGG,0.16
16,TCTTACACGTGTTGGG,0.2
17,AGCGACACGTGGTGAG,-0.03
18,TTGATCACGTGTTCAA,0.21
19,TTATTCACGTGGGTTC,0.05
20,ATTGTCACGTGTCTGG,0
21,ATCTACACGTGGGCGT,-0.01
22,GTATTCACGTGACTAG,0.41
23,AGTGACACGTGCTAGG,-0.12
24,AATAGCACGTGAAGGG,0.23
25,TATTACACGTGTGTGC,0.19
26,CGCTGCACGTGGTTTT,-0.04

row,Sequence,relative binding free energy [kcal/mol]
1,TGAGTCACGTGGAATA,0.09
2,GGTTTCACGTGGTAAG,0.32
3,TTATACACGTGCTTGT,0.07
4,GTCAGCACGTGGTATA,0.04
5,TTTGTCACGTGGGGGT,0.04
6,AGTCTCACGTGGTGCG,0.04
7,TGAGACACGTGGAGTA,-0.06
8,TGTGTCACGTGGAAAT,0.13
9,AGACTCACGTGTGTAT,0.24
10,TCTTACACGTGTGGTA,-0.01
11,GGGGGCACGTGTAGTC,-0.03
12,TGGATCACGTGGCGGG,0.05
13,TGTAACACGTGTTGAG,-0.04
14,TTTTCCACGTGGAGTT,0.17
15,ATGTTCACGTGAAATG,0.49
16,GGTTACACGTGTATAG,0.17
17,GGGTTCACGTGACTGG,0.41
18,TATGGCACGTGCTGGA,-0.23
19,TGATTCACGTGTAAGA,0.27
20,GGAAACACGTGGATTG,0.06
21,TTACGCACGTGGGTAG,-0.19
22,GTTGTCACGTGGGTCT,0.08
23,GTACGCACGTGGATGT,-0.04
24,GCTTACACGTGTGGGT,0.07
25,GTGTTCACGTGCGTAT,0.11
26,ATGGTCACGTGTGTCC,0.18

row,Sequence,relative binding free energy [kcal/mol]
1,AGGGACACGTGGGAAA,0.09
2,TGAGACACGTGTGGGA,0.09
3,ATTCTCACGTGTTGAA,0.29
4,TGGGTCACGTGCAACG,0.32
5,TGGCACACGTGGGTGA,-0.13
6,ATTTACACGTGTAGAA,0.19
7,GTAATCACGTGGTGGA,0.08
8,TTGTCCACGTGGGGCT,-0.26
9,GCTGGCACGTGTGAAG,0.02
10,GATTTCACGTGACGTG,0.59
11,GTTGACACGTGAGTGC,0.3
12,AATGGCACGTGATGAA,0.13
13,GTTCTCACGTGTTGAG,0.29
14,AGTTGCACGTGTGGTT,0.02
15,CAGATCACGTGTTAGT,0.24
16,TAGTCCACGTGTGTGC,0.07
17,TTGCTCACGTGGTAAG,0.14
18,CATTTCACGTGGTTAG,0.18
19,TATGTCACGTGCATAT,0.05
20,GAGTTCACGTGAGTGT,0.4
21,CGTGGCACGTGAATTG,0.2
22,GGTAACACGTGAGATT,0.37
23,TTTTGCACGTGAATAA,0.15
24,TGGGGCACGTGCAGAT,-0.05
25,TTCGACACGTGTTATG,0.01
26,CAGGGCACGTGGTGAG,-0.22

row,Sequence,relative binding free energy [kcal/mol]
1,GGTTACACGTGGGTCT,-0.19
2,ACGTGCACGTGTTGCG,0.03
3,TGGGTCACGTGCATTA,0.13
4,GGAAACACGTGTTTGG,-0.01
5,ACTTGCACGTGAAGGT,0.13
6,TGGGACACGTGCTGTT,-0.09
7,GCGGTCACGTGGAAAT,0.35
8,CGTTGCACGTGGGACG,-0.01
9,CATTACACGTGAGTTG,0.2
10,CAGAGCACGTGTAGGT,-0.16
11,TGCTACACGTGGATAT,0.29
12,TCAAGCACGTGGTTAG,-0.16
13,CGTGTCACGTGAGGTG,0.27
14,TATCGCACGTGTGGGG,-0.05
15,CAGTGCACGTGGGTTA,-0.27
16,CTGGACACGTGGTGAT,0.02
17,TTCGACACGTGGGGGG,-0.06
18,GGTTACACGTGGAGCT,0.17
19,AGAATCACGTGATGTT,0.28
20,AGAATCACGTGATTTT,0.22
21,TACCTCACGTGGGGGG,0.08
22,TATAACACGTGTGAGA,0.07
23,TAATTCACGTGAGTGG,0.54
24,CTTGTCACGTGTAATG,0.21
25,AGGTTCACGTGCAGTT,0.29
26,GGTATCACGTGCGTGG,0.11

row,Sequence,relative binding free energy [kcal/mol]
1,GGAGGCACGTGCGGCT,-0.05
2,TGGGTCACGTGAGTCC,0.32
3,TGTACCACGTGGCGTT,-0.18
4,TTTCGCACGTGGCGTT,-0.17
5,AAGGACACGTGGGTTT,-0.02
6,GGGGCCACGTGAAAGT,0.12
7,TTGTTCACGTGAGACT,0.41
8,GGATTCACGTGAGGTC,0.55
9,GTTTTCACGTGATGCT,0.33
10,ATGAACACGTGTTGGG,0.06
11,CGGTACACGTGGCGTG,-0.1
12,GGGAGCACGTGGGGCA,-0.49
13,TGGTGCACGTGATCGT,-0.09
14,GGCCGCACGTGGGTAG,-0.07
15,TGTATCACGTGATTTG,0.22
16,TGGCTCACGTGCGAGG,0.27
17,ATGTCCACGTGTATGG,-0.08
18,ATAGCCACGTGTGTAG,-0.1
19,GGCTGCACGTGGGCAT,-0.11
20,GAAAGCACGTGAGTGT,0.39
21,TCGAGCACGTGGGTTT,-0.11
22,TAGCGCACGTGTTGGC,0.03
23,TGGAACACGTGGGATT,0
24,AGCAGCACGTGGGATG,-0.2
25,GCTGGCACGTGGGTCG,-0.24
26,GTGCACACGTGGGTTG,-0.19

row,Sequence,relative binding free energy [kcal/mol]
1,GGCTTCACGTGAAAGG,0.54
2,TTGTCCACGTGGTTAA,0
3,CTTGACACGTGGATGG,-0.05
4,TTGAGCACGTGAGTCG,0.24
5,ATGTTCACGTGAAATA,0.28
6,GCGTTCACGTGGGCTG,0.28
7,GCATGCACGTGAATGG,0.35
8,AAGGACACGTGATTGG,0.23
9,TGATGCACGTGGACGT,-0.11
10,GTTAGCACGTGGTCTG,-0.19
11,GAGGCCACGTGGAGGG,-0.05
12,GACTGCACGTGCGGTG,0.02
13,TGGCTCACGTGAGTAT,0.3
14,TTAAACACGTGGTAGT,0.08
15,ATAGGCACGTGTGTAC,-0.2
16,GCTGACACGTGTGGTG,0.1
17,TGTCTCACGTGAAGGT,0.21
18,AAGTACACGTGATGGG,0.28
19,TCGTGCACGTGGTTTC,-0.03
20,TTGAGCACGTGGTTCA,-0.09
21,CGTTGCACGTGGGTCT,-0.14
22,AGGTACACGTGGATGG,0.01
23,CCAGTCACGTGGGGTG,-0.18
24,AGATGCACGTGTAGTT,-0.08
25,TGTCTCACGTGATTTT,0.34
26,TCCGGCACGTGGTGTT,-0.17

row,Sequence,relative binding free energy [kcal/mol]
1,TGGTCCACGTGAGGGT,0.18
2,TAGGGCACGTGGTATC,-0.15
3,CGGTCCACGTGGGGGA,-0.25
4,TCAGGCACGTGGGTCA,-0.19
5,GTCTGCACGTGAGGGC,0.28
6,ATCTGCACGTGCATGG,0.02
7,GTACGCACGTGGGGCG,-0.13
8,TGTCGCACGTGGTATT,-0.16
9,GTCGGCACGTGATTGG,0.03
10,ATAGTCACGTGAAGTG,0.2
11,AGAGACACGTGGGTAA,0.03
12,TGTTACACGTGAGTGC,0.1
13,ACGTTCACGTGCTTGT,0.18
14,ATAGGCACGTGACGTT,-0.17
15,ACATTCACGTGGTATT,0.06
16,AGTAGCACGTGTGATT,-0.05
17,AAAAGCACGTGGGGTA,-0.17
18,TGTTTCACGTGATGAG,0.29
19,ATAATCACGTGGTATA,0.09
20,GATTTCACGTGATTCG,0.29
21,TGTCGCACGTGTTGGA,-0.08
22,GAAGGCACGTGGTGTC,-0.26
23,TGATTCACGTGGGTGT,0.16
24,TAAGTCACGTGGTCAG,0.06
25,TTTAGCACGTGGTTTC,-0.1
26,GTGTACACGTGATTAG,0.39

row,Sequence,relative binding free energy [kcal/mol]
1,GTAGGCACGTGGTTCT,-0.06
2,TGATTCACGTGGTTCT,0.4
3,CCGGGCACGTGGAGTG,-0.26
4,GATTCCACGTGTGGAG,0.36
5,ACGGTCACGTGCTGTG,0.11
6,AGAGACACGTGGAGGG,-0.05
7,GGGAGCACGTGGGCGA,-0.11
8,TACAGCACGTGTTGGG,-0.04
9,ATCAGCACGTGGAGGG,-0.22
10,GGGCTCACGTGCGGTG,0.29
11,TGGGACACGTGGTTAT,-0.02
12,GGTTGCACGTGGTGAT,0.07
13,GGTAACACGTGCTTTT,0.07
14,GGGTGCACGTGTAGTA,0.09
15,ATGTTCACGTGGTGGT,0.2
16,TAGTTCACGTGTTATC,0.24
17,TTGTCCACGTGCGTGG,-0.06
18,TTGAGCACGTGCAGGG,-0.07
19,TACGCCACGTGGGTTG,-0.19
20,GAAGGCACGTGGCGTA,-0.11
21,TATTCCACGTGTTTTA,0.19
22,GGGTTCACGTGATTCG,0.47
23,ATGGGCACGTGGGCGT,-0.21
24,GGGTTCACGTGGGAAC,0.37
25,AGGGGCACGTGCAGTA,-0.16
26,GGGTGCACGTGGTTTG,0.07

row,Sequence,relative binding free energy [kcal/mol]
1,TTAAGCACGTGCTTAT,-0.26
2,AATTACACGTGGGTTT,0.07
3,AGTTGCACGTGCGAGG,0
4,TTACACACGTGGTGTA,-0.09
5,TATCACACGTGTTAGT,0.03
6,TAGTTCACGTGGTCGT,0.1
7,TGCGGCACGTGACGTT,-0.07
8,GGTTTCACGTGTTTTG,0.43
9,AGCGACACGTGGGTGG,-0.17
10,GTGTTCACGTGCATGA,0.28
11,ATTTGCACGTGATTGG,0.2
12,TGGGTCACGTGCGAGA,0.07
13,GTCGACACGTGGTTGT,0.23
14,TTAGTCACGTGGGGCC,-0.01
15,AGAATCACGTGGGCTT,0.1
16,GAACGCACGTGGTGAG,0.03
17,AAGGACACGTGAGGCG,0.27
18,TGTGTCACGTGTAAGA,0.06
19,GGTGACACGTGGTCAT,0.09
20,AGGTGCACGTGCCTGG,-0.12
21,TGTAGCACGTGTGGCA,-0.11
22,GGGGTCACGTGAGTGG,0.3
